The campaign covered roughly 390,000 compounds. About 17,000 (4.4%) were called active. This list was built around the results that the source calls inconclusive (neither active nor inactive); the mix of calls is not that of the screen. The call rests on the fitted dose curve; in most records, active means well fitted inhibition curve with a large enough effect; inconclusive means small, poorly fitted or top-dose-only effect; inactive means no such curve, though single readings can be large or run the other way. A potency beside an inconclusive call is a rough fit, not a confirmed value.
The compounds below were run against Lysine-specific demethylase 4A (Homo sapiens) (UniProt O75164) (assay: qHTS Assay for Inhibitors of JMJD2A-Tudor Domain). Settings: AlphaScreen JMJD2A-Tudor / H3K4me3 peptide binding; series mostly up to 114 µM.
Chain of UniProt O75164 (O75164 whole entry, looked up, the tested form may be a part): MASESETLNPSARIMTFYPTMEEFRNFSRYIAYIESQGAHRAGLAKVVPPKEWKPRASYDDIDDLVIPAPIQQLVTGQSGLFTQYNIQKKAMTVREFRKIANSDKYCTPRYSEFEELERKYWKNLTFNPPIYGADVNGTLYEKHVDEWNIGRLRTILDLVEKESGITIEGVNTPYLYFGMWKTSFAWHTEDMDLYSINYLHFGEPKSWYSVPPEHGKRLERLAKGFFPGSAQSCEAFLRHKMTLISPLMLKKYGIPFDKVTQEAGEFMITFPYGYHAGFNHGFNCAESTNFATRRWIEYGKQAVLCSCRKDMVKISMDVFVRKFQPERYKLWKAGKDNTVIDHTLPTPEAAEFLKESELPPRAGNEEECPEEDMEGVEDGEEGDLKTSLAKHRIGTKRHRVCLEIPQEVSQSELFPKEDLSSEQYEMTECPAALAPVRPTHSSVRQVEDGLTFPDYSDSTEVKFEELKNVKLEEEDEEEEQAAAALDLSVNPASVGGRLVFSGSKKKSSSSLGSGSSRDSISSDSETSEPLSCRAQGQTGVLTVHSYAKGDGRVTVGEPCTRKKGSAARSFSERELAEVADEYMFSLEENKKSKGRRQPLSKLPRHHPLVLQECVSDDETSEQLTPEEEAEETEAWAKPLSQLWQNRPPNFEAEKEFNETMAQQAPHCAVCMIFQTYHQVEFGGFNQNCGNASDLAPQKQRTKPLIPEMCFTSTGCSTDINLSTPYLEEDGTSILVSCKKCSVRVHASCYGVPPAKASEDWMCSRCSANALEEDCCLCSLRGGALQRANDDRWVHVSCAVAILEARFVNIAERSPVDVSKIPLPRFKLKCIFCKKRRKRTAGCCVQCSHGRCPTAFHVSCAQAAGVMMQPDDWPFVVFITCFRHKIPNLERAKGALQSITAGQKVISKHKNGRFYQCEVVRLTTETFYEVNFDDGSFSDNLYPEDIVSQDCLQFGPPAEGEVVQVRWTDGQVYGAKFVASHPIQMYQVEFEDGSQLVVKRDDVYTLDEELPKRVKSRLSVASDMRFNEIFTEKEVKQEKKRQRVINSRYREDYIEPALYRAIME
Further: nearly all actives have a fitted effect of over 50% in size.
Potency means the concentration at half of the fitted maximal effect; tags describe the fitted curve by direction and shape.

| Structure (SMILES) | Potency |
| --- | --- |
| CCN1C(=O)[C@H]2[C@H]3CN=C(SCC4CC4)N3[C@@](CC)(C(=O)OC)[C@H]2C1=O | inconclusive: 79.4 µM [inhibitor, partial curve] |
| CC(C)NCC(O)c1ccc2ccccc2c1 (centres undefined) | inactive |
| O=C(Nc1ccc(-c2csc(Nc3ccc(Cl)cc3)n2)cc1)c1cc([N+](=O)[O-])cc(C(F)(F)F)c1 | inconclusive: 31.6 µM [inhibitor, partial curve, poor fit] |
| O=C(O)c1cccc(N2C(=O)/C(=C/c3ccc([N+](=O)[O-])cc3)C=C2c2ccccc2)c1 | active: 25.1 µM |
| Cc1cccc(-n2cc(-c3ccccc3)c3c(=O)[nH]cnc32)c1 | active: 79.4 µM |
| COCc1cc(=O)[nH]c(-c2csc(C)n2)n1 | inconclusive: 7.08 µM [inhibitor, full curve, poor fit] |
| CCOC(=O)c1c(C)n(CC)c2ccc(OC(=O)c3ccc([N+](=O)[O-])cc3)cc12 | inconclusive: 12.6 µM [inhibitor, full curve] |
| FC(F)(F)c1cccc(NC(=S)NNC(=S)NCc2ccccc2)c1 | inconclusive: 31.6 µM [inhibitor, partial curve] |
| O=C(Nc1cccc(C(F)(F)F)c1)Nc1ccc2[nH]c(=O)[nH]c2c1 | inactive |
| Cc1ccc2oc(-c3ccc(C)c(NC(=O)/C=C/c4ccc(Cl)cc4)c3)nc2c1 | inactive |
| COc1ccc(Nc2c(-c3ccc(C)o3)nc3cc(C)ccn23)cc1 | inconclusive: 35.5 µM [inhibitor, full curve] |
| N#CC1=C(N)c2ccccc2CC12CCCCC2 | inconclusive: 22.4 µM [inhibitor, full curve] |
| CCOC(=O)N1CCN(C(=O)C(CC(C)C)NS(=O)(=O)c2ccc(C)cc2)CC1 (centres undefined) | inactive |
| CCNC(=O)/N=C1/NC(=O)C(C(C)C)O1 (centres undefined) | active: 7.94 µM |
| CC1CCN(c2ccc(NC(=O)c3cccnc3)cc2)CC1 | inconclusive: 79.4 µM [inhibitor, partial curve] |
| Cc1cccc(C)c1NS(=O)(=O)c1ccc2c(c1)C(=O)c1ccccc1C2=O | inconclusive: 28.2 µM [inhibitor, partial curve] |
| C/C(=N/Nc1ccnc2cc(Cl)ccc12)c1ccc(N)cc1 | inconclusive: 70.8 µM [inhibitor, single point] |
| Cc1nnc(N2C(=O)c3oc4ccccc4c(=O)c3C2c2ccc(Cl)cc2)s1 (centres undefined) | inconclusive: 79.4 µM [inhibitor, single point] |
| COc1cc(NC(=S)Nc2ccccn2)cc(OC)c1OC | inconclusive: 28.2 µM [inhibitor, single point] |
